# This is one part of the list. No stated cut-off is given here; in the data, active = 3.2 or more and inactive = the rest. Only a few entries rise above the background.
# Target: SHP2 C-SH2 domain E139D
# Experiment: enrichment score (SH2-bound / input frequency) (ratio); bacterial display of known human phosphotyrosine sites (pTyr-Var adds point mutants) read by sequencing; higher = stronger binding; tyrosines were phosphorylated by kinases first
# Details: peptide library: pTyr-Var
# 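Further: displayed peptides selected on beads carrying the immobilized SH2 domain, with library peptides lacking any tyrosine serving as negative controls.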
row,Binder,enrichment score
1,TTGGFYSYGGG [KRT24_Y120_A115T],inactive: 0.759
2,TTGGFYSFGGG [KRT24_Y120_A115T_YF],inactive: 0.856
3,RQNQEYEILLD [KRT39_Y379],inactive: 0.431
4,RQNQEYEILMD [KRT39_Y379_L383M],inactive: 0.832
5,DRLANYLEKVR [KRT40_Y103_S102N],inactive: 0.889
6,WYQTKYEELQI [KRT6B_Y360],inactive: 1.14
7,WYQTKYEELQV [KRT6B_Y360_I365V],inactive: 1.35
8,WFQTKYEELQV [KRT6B_Y360_I365V_YF],inactive: 1.8
9,EAEALYQTKFQ [KRT73_Y325],inactive: 0.74
10,EAEALYQTTFQ [KRT73_Y325_K328T],inactive: 0.697
11,KAESWYQTKYE [KRT75_Y342_E337K],inactive: 0.876
12,EAESWYQTKFE [KRT75_Y342_YF],inactive: 1.1
13,RLLREYQELMN [KRT75_Y434],inactive: 1.01
14,EVRAQYEEIAQ [KRT76_Y361],inactive: 0.763
15,KTTSGYAGGLS [KRT8_Y419],inactive: 0.586
16,KTTGGYAGGLS [KRT8_Y419_S417G],inactive: 0.742
17,GLSSAYGGLTS [KRT8_Y427],inactive: 0.495
18,GLSSAYGDLTS [KRT8_Y427_G429D],inactive: 0.711

# Target: SHP2 C-SH2 domain wild-type
# Experiment: as above
# Details: peptide library: pTyr-Var
row,Binder,enrichment score
1,TTGGFYSYGGG [KRT24_Y120_A115T],inactive: 0.717
2,TTGGFYSFGGG [KRT24_Y120_A115T_YF],inactive: 0.874
3,RQNQEYEILLD [KRT39_Y379],inactive: 0.634
4,RQNQEYEILMD [KRT39_Y379_L383M],inactive: 0.728
5,DRLANYLEKVR [KRT40_Y103_S102N],inactive: 0.794
6,WYQTKYEELQI [KRT6B_Y360],inactive: 1.51
7,WYQTKYEELQV [KRT6B_Y360_I365V],inactive: 1.73
8,WFQTKYEELQV [KRT6B_Y360_I365V_YF],inactive: 1.57
9,EAEALYQTKFQ [KRT73_Y325],inactive: 0.814
10,EAEALYQTTFQ [KRT73_Y325_K328T],inactive: 0.699
11,KAESWYQTKYE [KRT75_Y342_E337K],inactive: 0.707
12,EAESWYQTKFE [KRT75_Y342_YF],inactive: 0.769
13,RLLREYQELMN [KRT75_Y434],inactive: 1.06
14,EVRAQYEEIAQ [KRT76_Y361],inactive: 0.879
15,KTTSGYAGGLS [KRT8_Y419],inactive: 0.67
16,KTTGGYAGGLS [KRT8_Y419_S417G],inactive: 0.675
17,GLSSAYGGLTS [KRT8_Y427],inactive: 0.537
18,GLSSAYGDLTS [KRT8_Y427_G429D],inactive: 0.594

# Target: SHP2 N-SH2 domain L43F
# Experiment: as above
# Details: peptide library: pTyr-Var
row,Binder,enrichment score
1,TTGGFYSYGGG [KRT24_Y120_A115T],inactive: 0.795
2,TTGGFYSFGGG [KRT24_Y120_A115T_YF],inactive: 1.15
3,RQNQEYEILLD [KRT39_Y379],inactive: 0.658
4,RQNQEYEILMD [KRT39_Y379_L383M],inactive: 0.693
5,DRLANYLEKVR [KRT40_Y103_S102N],inactive: 0.802
6,WYQTKYEELQI [KRT6B_Y360],inactive: 2.07
7,WYQTKYEELQV [KRT6B_Y360_I365V],inactive: 1.71
8,WFQTKYEELQV [KRT6B_Y360_I365V_YF],inactive: 1.94
9,EAEALYQTKFQ [KRT73_Y325],inactive: 0.748
10,EAEALYQTTFQ [KRT73_Y325_K328T],inactive: 0.784
11,KAESWYQTKYE [KRT75_Y342_E337K],inactive: 0.677
12,EAESWYQTKFE [KRT75_Y342_YF],inactive: 0.826
13,RLLREYQELMN [KRT75_Y434],inactive: 1.19
14,EVRAQYEEIAQ [KRT76_Y361],inactive: 0.803
15,KTTSGYAGGLS [KRT8_Y419],inactive: 0.747
16,KTTGGYAGGLS [KRT8_Y419_S417G],inactive: 0.453
17,GLSSAYGGLTS [KRT8_Y427],inactive: 0.517
18,GLSSAYGDLTS [KRT8_Y427_G429D],inactive: 0.652

# Target: SHP2 N-SH2 domain T42A
# Experiment: as above
# Details: peptide library: pTyr-Var
row,Binder,enrichment score
1,TTGGFYSYGGG [KRT24_Y120_A115T],inactive: 0.862
2,TTGGFYSFGGG [KRT24_Y120_A115T_YF],inactive: 0.693
3,RQNQEYEILLD [KRT39_Y379],inactive: 0.732
4,RQNQEYEILMD [KRT39_Y379_L383M],inactive: 0.648
5,DRLANYLEKVR [KRT40_Y103_S102N],inactive: 0.703
6,WYQTKYEELQI [KRT6B_Y360],active: 8.24
7,WYQTKYEELQV [KRT6B_Y360_I365V],active: 5.59
8,WFQTKYEELQV [KRT6B_Y360_I365V_YF],active: 9.38
9,EAEALYQTKFQ [KRT73_Y325],inactive: 0.643
10,EAEALYQTTFQ [KRT73_Y325_K328T],inactive: 0.677
11,KAESWYQTKYE [KRT75_Y342_E337K],inactive: 0.743
12,EAESWYQTKFE [KRT75_Y342_YF],inactive: 0.714
13,RLLREYQELMN [KRT75_Y434],inactive: 0.951
14,EVRAQYEEIAQ [KRT76_Y361],inactive: 1.39
15,KTTSGYAGGLS [KRT8_Y419],inactive: 0.555
16,KTTGGYAGGLS [KRT8_Y419_S417G],inactive: 0.618
17,GLSSAYGGLTS [KRT8_Y427],inactive: 0.469
18,GLSSAYGDLTS [KRT8_Y427_G429D],inactive: 0.454

# Target: SHP2 N-SH2 domain T52S
# Experiment: as above
# Details: peptide library: pTyr-Var
row,Binder,enrichment score
1,TTGGFYSYGGG [KRT24_Y120_A115T],inactive: 0.627
2,TTGGFYSFGGG [KRT24_Y120_A115T_YF],inactive: 1.02
3,RQNQEYEILLD [KRT39_Y379],inactive: 0.44
4,RQNQEYEILMD [KRT39_Y379_L383M],inactive: 1.26
5,DRLANYLEKVR [KRT40_Y103_S102N],inactive: 0.762
6,WYQTKYEELQI [KRT6B_Y360],inactive: 2.89
7,WYQTKYEELQV [KRT6B_Y360_I365V],inactive: 1.54
8,WFQTKYEELQV [KRT6B_Y360_I365V_YF],inactive: 2.02
9,EAEALYQTKFQ [KRT73_Y325],inactive: 0.907
10,EAEALYQTTFQ [KRT73_Y325_K328T],inactive: 0.904
11,KAESWYQTKYE [KRT75_Y342_E337K],inactive: 0.723
12,EAESWYQTKFE [KRT75_Y342_YF],inactive: 0.681
13,RLLREYQELMN [KRT75_Y434],inactive: 1.37
14,EVRAQYEEIAQ [KRT76_Y361],inactive: 0.623
15,KTTSGYAGGLS [KRT8_Y419],inactive: 0.699
16,KTTGGYAGGLS [KRT8_Y419_S417G],inactive: 0.633
17,GLSSAYGGLTS [KRT8_Y427],inactive: 0.463
18,GLSSAYGDLTS [KRT8_Y427_G429D],inactive: 0.638

# Target: SHP2 N-SH2 domain wild-type
# Experiment: as above
# Details: peptide library: pTyr-Var
row,Binder,enrichment score
1,TTGGFYSYGGG [KRT24_Y120_A115T],inactive: 0.859
2,TTGGFYSFGGG [KRT24_Y120_A115T_YF],inactive: 0.785
3,RQNQEYEILLD [KRT39_Y379],inactive: 0.578
4,RQNQEYEILMD [KRT39_Y379_L383M],inactive: 1.15
5,DRLANYLEKVR [KRT40_Y103_S102N],inactive: 0.852
6,WYQTKYEELQI [KRT6B_Y360],inactive: 1.46
7,WYQTKYEELQV [KRT6B_Y360_I365V],inactive: 1.43
8,WFQTKYEELQV [KRT6B_Y360_I365V_YF],inactive: 1.21
9,EAEALYQTKFQ [KRT73_Y325],inactive: 0.864
10,EAEALYQTTFQ [KRT73_Y325_K328T],inactive: 0.851
11,KAESWYQTKYE [KRT75_Y342_E337K],inactive: 0.822
12,EAESWYQTKFE [KRT75_Y342_YF],inactive: 1.22
13,RLLREYQELMN [KRT75_Y434],inactive: 1.28
14,EVRAQYEEIAQ [KRT76_Y361],inactive: 0.829
15,KTTSGYAGGLS [KRT8_Y419],inactive: 0.794
16,KTTGGYAGGLS [KRT8_Y419_S417G],inactive: 0.69
17,GLSSAYGGLTS [KRT8_Y427],inactive: 0.519
18,GLSSAYGDLTS [KRT8_Y427_G429D],inactive: 0.66

# Source: the supplement of paper PMC10369915
